The structures appear in SMILES notation. About 540 (0.36%) of roughly 150,000 compounds showed an effect of 50% or more. The list shows a part of the results.

In the experiment the test system is Plasmodium falciparum. As to the kind of experiment: Primary screen in NF54 nanoGlo assay, in single point, at 2uM, 72h; a lower Z score goes with more inhibition. The following applies: timepoint 72 hour. The experiment is classed as functional, Erythrocyte.
`CCc1noc(C)c1C(=O)N1C[C@@H]2CC[C@H]1CN(CCCc1ccccc1)C2`: the “% Inhibition” value was -3% and the Z score came out at 0.58.

For the compound `CNC(=O)NC[C@H]1COCCN1C(=O)c1ccc(CC(C)C)s1`, the “% Inhibition” value is -13% and the Z score came out at 1.46.

As for `Cc1cccc(NC(=O)c2sc(-n3nc(C)c(Cc4ccc5c(c4)OCO5)c3C)nc2C)c1C`, the “% Inhibition” value came to 17% and the Z score was -1.51.

As for `O=C(CC[C@H]1CCCN(C(=O)C2=CCCCC2)C1)N1CCN(c2ccccn2)CC1`, the “% Inhibition” value is on record as -1% and the Z score stood at 0.08.

Take `CCn1c(C)nnc1CN1CC[C@@](O)(C(F)(F)F)C1`: the “% Inhibition” value was 4% and the Z score is recorded as -0.55.

Take `CCc1ccc(C(=O)N[C@H](C(=O)O)C(C)(C)C)o1`: the “% Inhibition” value is -17% and the Z score was 1.76.

In the case of `COc1ccc(CN2CCC(CO)(CCCc3ccccc3)CC2)cc1`, the “% Inhibition” value is -14% and the Z score came out at 1.54.

As to `Oc1cccc(C2=NN(c3nc(-c4ccccn4)cs3)[C@@](O)(C(F)(F)F)C2)c1`, the “% Inhibition” value is on record as 29% and the Z score is reported as -3.28.

Take `CCS(=O)(=O)NCCNC(=O)c1[nH]cnc1C(C)(C)C`: the “% Inhibition” value is 3% and the Z score is -0.35.

As for `CC(=O)NC[C@H]1OC[C@@H](NCc2ccc(C)cc2)[C@@H]1O`, the “% Inhibition” value was found to be 5% and the Z score is -0.9.

Take `OC(COCC1CC2CCC1C2)CN1CCN(c2ccccc2)CC1` (stereo unspecified): the “% Inhibition” value is reported as -4% and the Z score came to 0.51.

As for `Cc1cc(=O)n(CC(=O)NC2CCCCC2)c(-c2cccc(Cl)c2)n1`, the “% Inhibition” value is recorded as -4% and the Z score is recorded as 0.61.

Turning to `O=C(O)C1CCN(C(=O)c2cccc3c2CCC3)CC1`, the “% Inhibition” value is reported as -10% and the Z score was 1.51.

For the compound `Cc1ncsc1CN(C)S(=O)(=O)c1cncc(Cl)c1`, the “% Inhibition” value is recorded as -14% and the Z score came to 2.19.

As to `COCC1(CNC(=O)N[C@@H](C)c2ccc(Cl)cc2)CCC1`, the “% Inhibition” value is listed as -4% and the Z score was determined as 0.6.

On to `NC(=O)c1ccc(-c2cccc3ccnn23)cc1`, for which the “% Inhibition” value is on record as -14% and the Z score turned out to be 1.46.

Regarding `COc1ccc([C@H](CNC(=O)c2ccc(Cl)c(N3CCCC3=O)c2)N2CCCCC2)cc1`, the “% Inhibition” value amounted to 2% and the Z score is -0.3.

As for `Cc1cccc(/N=C(/NC(=O)c2cccc(Cl)c2)N2CCN(Cc3ccccc3F)CC2)c1`, the “% Inhibition” value was -5% and the Z score was 0.92.

Consider `C=CCOC1C[C@](OCc2cccc(C)c2)(C(=O)NCC2CC2)C[C@H]2OC(C)(C)O[C@@H]12` (stereo partly specified), for which the “% Inhibition” value is -9% and the Z score came to 1.25.

Regarding `O=C(CCc1cc(F)ccc1F)NCC1(O)CCOCC1`, the “% Inhibition” value came to 0% and the Z score was -0.04.

For the compound `C[C@H]1Cc2ccccc2N(Cc2nc(C(=O)O)co2)C1`, the “% Inhibition” value is given as -2% and the Z score was 0.28.

Take `O[C@@H]1CN(c2noc(C3CC3)n2)CCN(C2CCCC2)C1`: the “% Inhibition” value is listed as -12% and the Z score turned out to be 1.71.

Regarding `COc1cc(Cl)c(C)cc1NC(=O)[C@@H](C#N)C(=O)c1cnn(C)c1`, the “% Inhibition” value is listed as -7% and the Z score is on record as 1.13.

For `CCN(C(=O)Nc1cc(C)c(Cl)cc1OC)[C@H]1COC[C@@H]1O`, the “% Inhibition” value is reported as -12% and the Z score was determined as 1.77.

Turning to `O=C(c1ccc2nccn2c1)N1CCN(Cc2cc(F)cc(F)c2)CC1`, the “% Inhibition” value is given as -10% and the Z score amounted to 1.78.

As to `COc1ccc(NC(C)(C)C(=O)N2CC[C@H](CO)[C@@H](O)C2)cc1`, the “% Inhibition” value was 10% and the Z score is listed as -2.02.

Take `Cc1ncsc1CCC(=O)NCc1nnc2n1CCC2`: the “% Inhibition” value is on record as 7% and the Z score is -0.93.

With `Cn1ncc(NC(=O)Cn2cc(-c3ccc4ccccc4n3)cn2)n1`, the “% Inhibition” value is -11% and the Z score turned out to be 1.51.

On to `COc1ccc(C[C@H](N)c2nc(C3CC3)nn2C2CCN(C)CC2)cc1`, for which the “% Inhibition” value is 1% and the Z score is listed as -0.13.

On to `OC1CCN(Cc2ccc(CNCc3ccco3)cc2)CC1`, for which the “% Inhibition” value is given as -8% and the Z score is 1.12.

In the case of `Cc1ccc(CNC(=O)N2CCCC[C@@H]2CCO)c(N2CCCC2)c1`, the “% Inhibition” value is on record as 0% and the Z score is recorded as -0.04.

On to `O=C(c1ccncc1)N1CCc2[nH]c(-c3ccccc3)nc2C1`, for which the “% Inhibition” value is given as -11% and the Z score amounted to 2.13.

With `CCNC(=O)N(CCN(CC)CC)CC(=O)N1CCCN(c2ccc(-c3ccc(OC)cc3)nn2)CC1`, the “% Inhibition” value is on record as -12% and the Z score amounted to 2.11.

On to `O=C(NCCc1ccccc1)N1CC[C@@]2(C1)Nc1cccnc1N=C2NC1CCCC1`, for which the “% Inhibition” value came out at 37% and the Z score was -4.15.

As for `CC(C)Cn1ncnc1CN1C[C@H](CO)Oc2ccccc21`, the “% Inhibition” value is recorded as -2% and the Z score came to 0.2.

For `CC(C)(C)c1n[nH]cc1CNC1CCN(C2CC2)CC1`, the “% Inhibition” value turned out to be 3% and the Z score was -0.58.

In the case of `Cc1conc1NS(=O)(=O)c1cc(Cl)ccc1OCCC1CC1`, the “% Inhibition” value is -3% and the Z score came out at 0.46.

As for `CCN1CCC[C@@H]1CNCc1ccco1`, the “% Inhibition” value is recorded as -5% and the Z score is 0.88.

`O=C(c1csc(-c2cccs2)n1)N1CCCOCC1`: the “% Inhibition” value is on record as -8% and the Z score is recorded as 1.45.

For `CC(C)C1(c2ccccc2)CN(C(=O)CCc2cncc(F)c2)C1`, the “% Inhibition” value is given as -8% and the Z score stood at 1.03.

As to `COc1ccc(CN(C(=O)c2ccc(F)cc2)c2nc3[nH]c(C)c(Cc4ccccc4)c(=O)n3n2)cc1`, the “% Inhibition” value is -12% and the Z score worked out at 1.99.

`O=C(NC1CC1)[C@H](Nc1cccc2c1OCCO2)c1ccccc1`: the “% Inhibition” value is given as -1% and the Z score is on record as 0.17.

For the compound `NC(=O)[C@@H](c1ccccc1)N1CCN(c2nccn3cncc23)CC1`, the “% Inhibition” value is recorded as 4% and the Z score is -0.77.

These data come from ChEMBL document CHEMBL4888484, “Replenishing the malaria drug discovery pipeline: Screening and hit evaluation of the MMV Hit Generation Library 1 (HGL1) against asexual blood stage Plasmodium falciparum ,using a nano luciferase reporter read-out” (2022).
